Test results as given in PubChem BioAssay AID652104 (National Center for Advancing Translational Sciences (NCATS), 2013).
The whole screen tested about 410,000 compounds, of which about 7,200 (1.8%) were called active. Inconclusive means that the source gave no clear call. Such entries were picked first, then a sample of the others. Calls follow the shape of the dose curve; as a rule, active = well fitted activation curve with a large enough effect; inconclusive = small, poorly fitted or top-dose-only effect, or another doubt; inactive = no such curve, though single readings can be large or run the other way. No potency is given beside an inconclusive call; the fits are too rough.

Assay: qHTS of TDP-43 Inhibitors; also: nearly all actives have a fitted effect of over 50% in size; as to growth rescue (activation): % of control where 0% means no effect
Conditions: TDP-43 expressing yeast growth rescue, BacTiter-Glo, 24 h; growth rescue (activation): at 46.1 µM (top of the series)
In short: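 Yeast cells expressing TDP-43 under galactose induction are exposed to compounds for 24 hr at 30 deg C. BacTiter-Glo luminescence measures growth, so protective compounds score as activators.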
Potency is read from the fitted curve at half-maximal effect; tags tell the direction and shape of the fitted curve.

| Structure (SMILES) | Potency | growth rescue (activation) |
| --- | --- | --- |
| Cc1ccc([C@H]2C[C@@H](O)[C@H](n3cc(COC(=O)c4ccccc4)nn3)CN2CC2CCCCC2)cc1 | inconclusive [activator, partial curve] |  |
| CC=C(C)C1(CCC)C(=O)NC(=S)NC1=O | inconclusive [activator, partial curve] |  |
| O=[N+]([O-])c1ccc(Cl)c([N+](=O)[O-])c1 | active: 11.2 µM |  |
| CC1=C(N2CC2)C(=O)C(CO)=C(N2CC2)C1=O |  | inconclusive: -32.1% [activator] |
| C=C1CC[C@@]2(O)[C@H]3Cc4ccc(O)c5c4[C@@]2(CCN3CC2CC2)[C@H]1O5 | inconclusive [activator, partial curve] |  |
| O=C(Nc1cccnc1)c1c(O)c2c(n(Cc3ccccc3)c1=O)CCCC2 | inconclusive [activator, single point] |  |
| CCC(=O)c1cn(Cc2ccccc2)c2ccccc12 | active: 8.91 µM |  |
| O=C1/C(=C/c2ccc([N+](=O)[O-])cc2)N2CCC1CC2 | inactive |  |
| Cc1ccc([C@H]2C[C@H](O)[C@@H](n3cc(COC(=O)c4ccccc4)nn3)CN2C(=O)C2CCCCC2)cc1 | inactive |  |
| COc1ccc(O)c(C(=O)c2cnn(-c3ccccn3)c2)c1 | inconclusive [activator, single point] |  |
| COC(=O)C1=C(c2cccc(OCc3ccccc3)c2)C[C@@H]2CC[C@H]1N2C(=O)NCc1ccc([N+](=O)[O-])cc1 | inactive |  |
| CC(=O)c1ccc2c(c1)C1C(Cl)C(Sc3ccccc3[N+](=O)[O-])CC1C(c1ccccc1)N2 (centres undefined) | inactive |  |
| Cc1cc(=O)oc2c(C)c(OC3CCCCC3=O)ccc12 (centres undefined) | inconclusive [activator, single point] |  |
| COC(=O)C1=C(c2ccc(-c3ccccc3)c(F)c2)C[C@@H]2CC[C@H]1N2C(=O)NC(C)C | inconclusive [activator, single point] |  |
| COc1cc2ccc(=O)oc2c2ccoc12 | inconclusive [activator, full curve, poor fit] |  |
| CCC(=O)Nc1ccc(Cl)c(Cl)c1 | inconclusive [activator, partial curve] |  |
| Cn1c(O)c(/C=N/NC(=O)c2ccncc2)c(=O)[nH]c1=S | inconclusive [activator, full curve] |  |
| O=c1[nH]c2ccccc2c(=O)n1-c1ccc(Cl)cc1Cl | inconclusive [activator, single point] |  |
| Cc1nn(-c2nccs2)c2c1C(=O)CC(C)(C)C2Br (centres undefined) | active: 14.1 µM |  |
| COc1ccc(OC)c(CCNCc2c(C(=O)O)c(C)n(Cc3ccc(F)cc3Cl)c2C)c1 | inactive |  |
| COC(=O)C12OCC34C(CC5C(C)=C(O)C(=O)CC5(C)C3C(O)C1O)OC(=O)C(OC(=O)/C=C(\C)C(C)C)C24 (centres undefined) | inconclusive [activator, single point] |  |
| COc1ccc(C(=O)C23CN4CN(CN(C4)C2)C3)cc1 | inactive |  |
| Cc1ccnc(-n2c(C)cc(/C=C3\C(=O)NC(=S)N(C)C3=O)c2C)c1 | active: 35.5 µM |  |
| CCOC(=O)[C@]12Cc3ccccc3[C@H]1N(Cc1ccccc1)C(=O)c1cc(OC)ccc12 | inconclusive [activator, partial curve] |  |
| COc1ccc(OC)c(/C=N/OC(=O)Nc2ccc(Cl)cc2)c1 | active: 17.8 µM |  |
| COC1=CC(=O)O[C@@H](/C=C/c2ccccc2)C1 | inconclusive [activator, full curve, poor fit] |  |
| O=C(O)CC[N+](=O)[O-] | inconclusive [activator, full curve] |  |

| Structure (SMILES) | Potency | growth rescue (activation) |
| --- | --- | --- |
| Cc1ccc2c(c1N)C(=O)c1ccccc1C2=O | inconclusive [activator, partial curve] |  |
| COc1ccc(Cn2c(=O)oc3ccc(C)cc32)cc1OC | inconclusive [activator, single point] |  |
| Cc1c(C=O)c2ccccc2n1Cc1ccccc1 | inconclusive [activator, single point] |  |
| Cc1csc(NC(=O)C(Cl)c2ccccc2)n1 (centres undefined) (tested in a mixture with another compound) | inconclusive [activator, single point] |  |
| CCc1nc2ccccc2c(=O)n1-c1ccc2ccccc2c1 | inconclusive [activator, single point] |  |
| Nc1ccc2c(c1)Cc1cc([N+](=O)[O-])ccc1-2 | active: 8.91 µM |  |
| CC(=O)c1ccc(NC(=O)c2cc(CC(C)C)on2)cc1 | inconclusive [activator, partial curve] |  |
| CC(=O)O[C@H]1CC[C@@]2(C)C(=CC[C@@H]3[C@@H]2CC[C@]2(C)C(=O)CC[C@@H]32)C1 | inconclusive [activator, single point] |  |
| CN(Cc1cccc(-c2cccnc2)c1)C(=O)Oc1ccc([N+](=O)[O-])cc1 | inconclusive [activator, partial curve] |  |
| CCN(CC)C(=O)c1ccc(NC(=O)Nc2ccccc2F)cc1 | inactive |  |
| CC(C)OP(=O)(OC(C)C)C(Nc1ccccc1)c1ccccc1C(F)(F)F (centres undefined) | inconclusive [activator, full curve] |  |
| Cc1cc(C)cc(OCCOc2cccc(C=C3C(=O)NC(=O)NC3=O)c2)c1 | inconclusive [activator, partial curve] |  |
| Clc1ccc(COC(Cn2ccnc2)c2ccc(Cl)cc2Cl)cc1 (centres undefined) | inconclusive [activator, partial curve] |  |
| Cc1ccc(-c2cc(C(=O)N3CCC4(CC3)OCCO4)no2)cc1 | inconclusive [activator, single point] |  |
| FC(F)(F)c1ccc2c(c1)nnn2C1CCN(Cc2nnnn2Cc2ccccc2)CC1 | inconclusive [activator, partial curve] |  |
| C=CCc1ccc(OCCn2nnc3ccccc32)c(OC)c1 | inconclusive [activator, partial curve] |  |
| CCCc1cc(N2CCN(c3ccc(OC)cc3)CC2)n2cnnc2n1 | inconclusive [activator, single point] |  |
| Cc1ccc2c(c1)c(C1=c3ccccc3=NC1=O)c(O)n2C | inconclusive [activator, full curve, poor fit] |  |
| Cc1ccc(-c2cc(C(F)F)n3ncc(C(=O)N4CCc5ccccc5C4)c3n2)cc1 | active: 15.8 µM |  |
| O=P(OC1CCCCC1)(OC1CCCCC1)C(O)c1c(Cl)cccc1Cl (centres undefined) | inconclusive [activator, single point] |  |
| CCC(=NCCCn1ccnc1)c1c(O)n(Cc2ccccc2)c(=O)[nH]c1=O | active: 31.6 µM |  |
| Cc1c(C(=O)N2CCC3(CC2)OCCO3)sc2ncnc(N(C)c3ccccc3)c12 | inconclusive [activator, partial curve] |  |
| Cc1nc2ccccc2c(=O)n1-c1ccc(Cl)cc1Cl | active: 15.8 µM |  |
| CC(=NCc1ccc(F)cc1)c1c(O)n(C)c(=O)n(C)c1=O | inconclusive [activator, partial curve] |  |
| CC1=NN(c2ccccc2)C(=O)C1/C=C1/C(=O)NC(=O)N(c2cc(C)cc(C)c2)C1=O (centres undefined) | inactive |  |
| CCCCCCCC(=O)NC(Oc1ccccc1[N+](=O)[O-])C(Cl)(Cl)Cl (centres undefined) | inconclusive [activator, single point] |  |
| CCOP(=O)(OCC)c1ccc(O)cc1 | inconclusive [activator, partial curve] |  |

| Structure (SMILES) | Potency | growth rescue (activation) |
| --- | --- | --- |
| OC[C@H]1OC(O)C[C@@H](O)[C@@H]1O (some centres undefined) | inconclusive [activator, partial curve] |  |
| COC(=O)C1=C(c2cc3ccccc3s2)C[C@@H]2CC[C@H]1N2C(=O)NCc1ccccc1 | inconclusive [activator, single point] |  |
| CC(=NCCC1=CCCCC1)c1c(O)n(C)c(=O)n(C)c1=O | inconclusive [activator, partial curve] |  |
| CCc1ccc(N(CC)C(=O)CCn2cnc3onc(-c4ccc(F)cc4)c3c2=O)cc1 | inconclusive [activator, single point] |  |
| COC(=O)C1=C(c2ccc3ccccc3c2)C[C@@H]2CC[C@H]1N2C(=O)N1CCCC1 | inconclusive [activator, single point] |  |
| COc1cc(OC)cc(-c2sc3ccc(OC)cc3c2-c2ccc(OCCN3CCOCC3)cc2)c1 | inconclusive [activator, single point] |  |
| Cc1ccc(-n2c(=S)[nH]c3ccccc3c2=O)cc1F | inconclusive [activator, single point] |  |
| CCOc1ccc(CNC(=O)CSc2c3c(nc4cc(Cl)ccc24)CCCC3)cc1 | inconclusive [activator, partial curve] |  |
| O=C1CC(N2CC=C(c3ccc(F)cc3)CC2)C(=O)N1c1ccc(F)cc1 (centres undefined) | inconclusive [activator, partial curve, poor fit] |  |
| COC(=O)C1=C(c2cccc(OCc3ccccc3)c2)C[C@@H]2CC[C@H]1N2C(=O)NCc1ccccc1 | inconclusive [activator, partial curve] |  |
| O=C(c1ccco1)c1cn(Cc2ccccc2)c2ccccc12 | active: 22.4 µM |  |
| CC(=O)O[C@@]12CO[C@@H]1C[C@H](OC1OCC(O)C(O)C1O)[C@@]1(C)C(=O)[C@H](O)C3=C(C)[C@@H](OC(=O)[C@H](O)[C@@H](NC(=O)c4ccccc4)c4ccccc4)C[C@@](O)([C@@H](OC(=O)c4ccccc4)C12)C3(C)C (some centres undefined) | inactive |  |
| CC[C@H](C)/C=C(C)/C=C/C1=CC2=C(Cl)C(=O)[C@](C)(OC(C)=O)C(=O)C2=CO1 |  | inconclusive: -92.1% [activator] |
| C[C@]12CC[C@H](O)CC1=CC[C@@H]1[C@@H]2CC[C@]2(C)C(=O)CC[C@@H]12 | active: 15.8 µM |  |
| COc1ccc(NC(=O)CN2C(=O)CN=C(c3ccccc3)c3ccccc32)c(OC)c1 | inactive |  |
| CCOC(=O)[C@]12Cc3c(cc(OC)c(OC)c3OC)[C@H]1N(C1CCCCC1)C(=O)c1ccccc12 |  | inconclusive: -86.1% [activator] |
| COC(=O)C1=C(c2ccc(Cl)c(C(F)(F)F)c2)C[C@@H]2CC[C@H]1N2C(=O)NCc1ccco1 | active: 22.4 µM |  |
| CCOc1ccc(CCNC(=O)c2cnc3sc(N4CCCC4)nn3c2=O)cc1 | inconclusive [activator, partial curve] |  |
| CCOc1ccc(CN(CCCl)CCCl)cc1C(=O)OC | inconclusive [activator, single point] |  |
| COc1ccc(C(=O)NCc2cc3ccccc3n2C)cc1 | inconclusive [activator, single point] |  |
| COc1cc2c(cc1/C=C/[N+](=O)[O-])OCO2 |  | inconclusive: -91.7% [activator] |
| O=c1oc2ccccc2c(O)c1[C@H]1c2ccc(O)cc2Oc2c1c(=O)oc1ccccc21 | active: 5.62 µM |  |
| Cc1ccc(S(=O)(=O)NCCC(=O)Nc2ccc(Cl)cc2C(=O)c2ccccc2)cc1 | inconclusive [activator, partial curve] |  |
| COC(=O)c1cn(C(=O)c2cccc3ccccc23)c2ccccc12 | inconclusive [activator, partial curve] |  |
| CC(=NCc1ccc2c(c1)OCO2)c1c(O)n(-c2ccccc2)c(=O)[nH]c1=O | inconclusive [activator, partial curve] |  |
